Assay results taken from patent US12187772 (Regeneron, dated 2025).

Target: T1, IL10 receptor (IL10 receptor subunit alpha IL10Ra and beta subunit IL10Rb) on Ramos/STAT3-Luc and … (UniProt Q13651 22-578; Q08334 20-325, limits assumed)
T1 sequence (looked up) 1: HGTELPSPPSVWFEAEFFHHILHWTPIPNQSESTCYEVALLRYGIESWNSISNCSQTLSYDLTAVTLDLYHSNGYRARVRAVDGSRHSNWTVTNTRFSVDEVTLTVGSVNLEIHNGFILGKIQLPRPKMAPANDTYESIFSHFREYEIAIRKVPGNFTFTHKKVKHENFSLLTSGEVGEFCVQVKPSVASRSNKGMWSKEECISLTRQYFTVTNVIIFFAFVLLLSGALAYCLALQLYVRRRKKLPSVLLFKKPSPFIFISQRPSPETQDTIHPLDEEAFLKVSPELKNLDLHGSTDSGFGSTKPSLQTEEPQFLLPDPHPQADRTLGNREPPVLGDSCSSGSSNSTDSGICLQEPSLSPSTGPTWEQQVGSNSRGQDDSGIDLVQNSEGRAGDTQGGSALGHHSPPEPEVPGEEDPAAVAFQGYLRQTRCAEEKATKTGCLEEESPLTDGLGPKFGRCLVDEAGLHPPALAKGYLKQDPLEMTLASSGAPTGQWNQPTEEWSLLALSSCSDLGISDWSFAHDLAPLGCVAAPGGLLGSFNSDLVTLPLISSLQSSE
T1 sequence (looked up) 2: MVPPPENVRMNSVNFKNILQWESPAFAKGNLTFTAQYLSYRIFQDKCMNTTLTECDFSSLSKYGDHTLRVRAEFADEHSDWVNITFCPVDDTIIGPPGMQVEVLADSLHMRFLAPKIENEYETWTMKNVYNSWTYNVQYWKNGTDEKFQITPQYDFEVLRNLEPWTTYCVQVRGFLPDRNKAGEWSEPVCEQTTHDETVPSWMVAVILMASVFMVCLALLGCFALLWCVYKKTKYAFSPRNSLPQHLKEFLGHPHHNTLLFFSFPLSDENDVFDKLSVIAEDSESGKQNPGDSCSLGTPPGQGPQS
Experiment: cell-based or functional assay

Row | Binder | EC50 of luciferase activity, Ramos/Stat3-Luc reporter cells | EC50 of luciferase activity, TF-1/Stat3-Luc reporter cells | Fold Induction of luciferase activity, Ramos/Stat3-Luc reporter cells | Fold Induction of luciferase activity, TF-1/Stat3-Luc reporter cells
1 | IL10M10 (hIL10-Fc; Fc is an IgG1 with D265A, N297A mutations) (Fc fusion) SPGQGTQSENSCTHFPGNLPNMLRDLRDAFSRVKTFFQMKDQLDNLLLKESLLEDFKGYLGCQALSEMIQFYLEEVMPQAENQDPDIKAHVNSLGENLKTLRLRLRRCHRFLPCENKSKAVEQVKNAFNKLQEKGIYKAMSEFDIFINYIEAYMTMKIRN[gap - human IgG1 Fc with D265A N297A (EU numbers)] | 0.138 nM | 0.503 nM | 2.09 fold | 2.16 fold
2 | IL10M9 (hIL10-1XG4S-Fc; Fc is an IgG1 with D265A, N297A mutations) (Fc fusion) SPGQGTQSENSCTHFPGNLPNMLRDLRDAFSRVKTFFQMKDQLDNLLLKESLLEDFKGYLGCQALSEMIQFYLEEVMPQAENQDPDIKAHVNSLGENLKTLRLRLRRCHRFLPCENKSKAVEQVKNAFNKLQEKGIYKAMSEFDIFINYIEAYMTMKIRNGGGGS[gap - human IgG1 Fc with D265A N297A (EU numbers)] | 0.145 nM | 0.7 nM | 2.77 fold | 2.55 fold
